# This is one part of the list. The energies were worked out here from pooled read counts, against the library average; single values are noisy.
# Target: T1, Pho4 (S. cerevisiae) (UniProt P07270)
# T1 sequence: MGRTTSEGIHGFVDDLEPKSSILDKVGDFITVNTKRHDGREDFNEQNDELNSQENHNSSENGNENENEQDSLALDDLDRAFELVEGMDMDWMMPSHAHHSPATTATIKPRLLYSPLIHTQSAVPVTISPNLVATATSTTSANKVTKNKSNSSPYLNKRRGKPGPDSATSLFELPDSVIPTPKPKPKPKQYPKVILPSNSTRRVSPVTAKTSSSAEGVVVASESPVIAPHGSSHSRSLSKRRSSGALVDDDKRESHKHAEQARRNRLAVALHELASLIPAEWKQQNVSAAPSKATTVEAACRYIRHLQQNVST
# Assay: relative binding free energy (BET-seq); higher = weaker binding
# Settings: reference: library average
row,Sequence,relative binding free energy [kcal/mol]
1,CGACTCACGTGGGGGG,-0.04
2,GAGTACACGTGGTGCG,0.05
3,TGGGGCACGTGGGTCA,-0.29
4,TAGCGCACGTGGAAGG,-0.19
5,TATTACACGTGTGGTC,0.03
6,ATTTGCACGTGCGTGG,-0.03
7,CGGTACACGTGAGGTG,0.26
8,AATCACACGTGGTGTA,0.07
9,GATGGCACGTGTGGGC,0.05
10,CCAGGCACGTGGGGGC,-0.2
11,ATATGCACGTGCGAGG,-0.11
12,AGTTACACGTGCGGCT,0.1
13,ATGGGCACGTGGTACT,-0.23
14,GGTGTCACGTGGATTT,0.2
15,AATTCCACGTGTATTG,0.15
16,TGATGCACGTGTGGAC,0.09
17,GTGTGCACGTGTTATA,-0.06
18,GTCGGCACGTGTTGAT,-0.03
19,TCAAACACGTGGTGTT,-0.12
20,TGGGACACGTGTGTTG,0.07
21,ATATTCACGTGTTATG,0.28
22,ACGTTCACGTGTCTTT,0.3
23,TAAGTCACGTGGGGGG,0.02
24,GGGAACACGTGTCGTT,0.16
25,CATGTCACGTGAGGTG,0.24
26,ATTTTCACGTGTGTCA,0.33

row,Sequence,relative binding free energy [kcal/mol]
1,AAGCTCACGTGGGGGG,0
2,AGCAGCACGTGGTTTA,-0.14
3,GTCTACACGTGGTTGT,0.12
4,GGTTTCACGTGTCAGA,0.2
5,GGTAGCACGTGTCTTG,-0.07
6,GTGTGCACGTGTAGCT,-0.08
7,GTCCGCACGTGTGGGC,0.13
8,TCTGGCACGTGTTGGG,-0.03
9,TAGTTCACGTGGTCTT,0.14
10,TGCGACACGTGTAGTA,0.1
11,ATAGTCACGTGTGGGA,0.08
12,GTGGTCACGTGGAGGG,0.1
13,CTGCTCACGTGAGTGG,0.28
14,GTGGTCACGTGCATAA,0.11
15,AACTGCACGTGGTTGG,-0.05
16,TAGTGCACGTGGGCGT,-0.16
17,TCGTGCACGTGATGAG,0.14
18,TGTATCACGTGACGGC,0.37
19,TGTTGCACGTGTTGGT,0.04
20,AATAACACGTGGGTGG,-0.11
21,GTCAGCACGTGGGGAA,-0.14
22,TTAATCACGTGATGGC,0.22
23,CTTGGCACGTGTGTTT,-0.02
24,GAGGGCACGTGGTGAC,-0.11
25,CATGTCACGTGGGGGG,0
26,ATGATCACGTGTTCTG,0.22

row,Sequence,relative binding free energy [kcal/mol]
1,TTAACCACGTGGAGGT,-0.1
2,TTATGCACGTGGGTGC,-0.12
3,TGGTACACGTGTGACT,0.22
4,TAGGACACGTGTATTT,-0.03
5,AGCGGCACGTGGCAGG,-0.3
6,GGAGTCACGTGTCATT,0.06
7,TTGTACACGTGGTGGC,0.07
8,TTGCTCACGTGTGCGG,0.25
9,GGATTCACGTGGGGTC,0.21
10,TATTACACGTGTAAGG,0.2
11,GTTGTCACGTGGGTAG,-0.1
12,TAATGCACGTGGGATT,-0.17
13,GTGGTCACGTGCCTTT,0.04
14,GGATGCACGTGGACTG,0.13
15,CTGAACACGTGGTGGT,-0.04
16,ACTGTCACGTGAGTTT,0.25
17,AACATCACGTGTTGTG,-0.04
18,TAGTGCACGTGTGATG,0.06
19,TTGGGCACGTGAAGGA,0.21
20,GGTAACACGTGTGTTC,0.1
21,TGATGCACGTGCATTT,-0.02
22,GTTGGCACGTGAGGCG,0.18
23,CATATCACGTGGGGTG,0.03
24,AAAGTCACGTGCGATG,0.23
25,AGGTGCACGTGCGCAG,-0.15
26,GGGAGCACGTGGTAAT,-0.08

row,Sequence,relative binding free energy [kcal/mol]
1,GTTTACACGTGGAGAA,0.19
2,TATTACACGTGAAGTG,0.27
3,TGTTTCACGTGCTGGA,0.28
4,AAATGCACGTGTGGCA,0.16
5,TTTTGCACGTGCGGAA,-0.12
6,TTGTACACGTGGGAAG,-0.13
7,ATTTTCACGTGTACGA,0.38
8,GTTTGCACGTGCTGTA,0.13
9,GGGTACACGTGTGCAG,0.23
10,GGATGCACGTGAAGTA,0.19
11,AATTGCACGTGAGTAG,0.38
12,TGGTACACGTGCGTAA,0.11
13,GTGGTCACGTGGTATA,0.07
14,GGCGTCACGTGGGAGA,-0.04
15,TCGTTCACGTGGTGGC,0.26
16,GTGGGCACGTGAATGT,0.16
17,TTGAGCACGTGGCTAG,-0.17
18,GGTTGCACGTGAGAAA,0.27
19,GATGTCACGTGTACGA,0.25
20,TGGAACACGTGGGTCT,0.01
21,ATTATCACGTGTTGTT,0.11
22,TGGGACACGTGTGGGG,0.08
23,AATGGCACGTGGTGGC,-0.34
24,TACGGCACGTGGATTT,0.06
25,AGCGGCACGTGTTTGG,0.03
26,TATAGCACGTGGAGAG,-0.12

row,Sequence,relative binding free energy [kcal/mol]
1,TGTGTCACGTGATTAG,0.23
2,GGTAGCACGTGGTGCC,-0.03
3,TTCCGCACGTGGGTAG,-0.06
4,TTGTTCACGTGGATTT,0.28
5,TGCTGCACGTGTTGTT,-0.06
6,CCTGGCACGTGGTGTA,-0.16
7,ATGTACACGTGCGAGT,0.13
8,TATGTCACGTGGATTT,0.22
9,TTATTCACGTGAGGGT,0.38
10,TAAATCACGTGTTTAA,0.17
11,AGGTTCACGTGACGAT,0.27
12,TTTGTCACGTGCTTGA,0.06
13,ATTTTCACGTGGCGAA,0.22
14,GTGCCCACGTGTATGT,0.08
15,CTCATCACGTGGGTGT,0
16,CGACGCACGTGAGGGT,0.16
17,TTTGGCACGTGATGTA,-0.04
18,GAGGTCACGTGCTATG,0.12
19,TGTTCCACGTGGGTCA,-0.02
20,GGCTGCACGTGTGGGC,0.09
21,TAGGACACGTGTATGT,0.06
22,TATATCACGTGGTGCT,0.15
23,GGTTACACGTGAGGAT,0.42
24,ATCGGCACGTGATTGT,0.04
25,AATTGCACGTGTGCTT,-0.06
26,CGAATCACGTGGGTTA,0.08

row,Sequence,relative binding free energy [kcal/mol]
1,TGAAACACGTGGGCGG,-0.06
2,CGTAGCACGTGGCTGG,-0.08
3,TGGAACACGTGAGGAG,0.35
4,TGGCTCACGTGGTGCA,0.17
5,AAGAACACGTGGTTTG,0.07
6,TAGCTCACGTGATTGG,0.39
7,GGGTCCACGTGGGTGA,-0.02
8,GATTACACGTGCGGTG,0.34
9,TTAAACACGTGGTGGC,0.05
10,TAGCTCACGTGATGTA,0.27
11,GGTGTCACGTGGCAGA,0.02
12,TCGATCACGTGATGGG,0.46
13,TTAGTCACGTGTCTTA,0.03
14,GTCGGCACGTGTGGCT,0.01
15,TGAGTCACGTGCGTAG,-0.07
16,GTTAACACGTGTCTGG,0.05
17,TGGGTCACGTGGTACT,0.03
18,AGGATCACGTGTGCGT,0.07
19,TGGCGCACGTGGTTGG,-0.18
20,ATGGTCACGTGGCGGC,0
21,CGGGGCACGTGAAGAA,0.25
22,ATGTTCACGTGGCCTG,0.22
23,TGCGTCACGTGCGGGG,-0.07
24,ATCGGCACGTGGGTGT,-0.18
25,AGTAGCACGTGGTAGA,-0.1
26,AGTAGCACGTGGTCGG,-0.14

row,Sequence,relative binding free energy [kcal/mol]
1,AGGTACACGTGTAAGT,0.14
2,TGAGACACGTGGTTGA,-0.05
3,TCTGGCACGTGTCATG,-0.07
4,ATTGGCACGTGGTTTA,-0.08
5,GTACTCACGTGATTTT,0.26
6,TCGAGCACGTGCGGGT,0
7,TGGGGCACGTGTAAAA,0.03
8,TCCAACACGTGTGGTT,0.16
9,AAAAGCACGTGCGGGT,-0.18
10,TACGGCACGTGGCAGG,-0.07
11,TGTTACACGTGATGTG,0.18
12,AGTGACACGTGGTGAG,-0.04
13,GGGGGCACGTGGTATC,-0.09
14,TAGCGCACGTGTTGTT,-0.11
15,GTTGTCACGTGCGGGA,0.22
16,ATTAGCACGTGGGTCT,-0.26
17,AGATTCACGTGTTCTT,0.12
18,TGAGGCACGTGGAGCT,-0.16
19,TAGGTCACGTGTGTGG,0.09
20,TGTTCCACGTGGTTTA,-0.05
21,GAATTCACGTGGTGAA,0.26
22,TTAATCACGTGCGTTA,-0.01
23,GCAGGCACGTGTCGGT,-0.05
24,ATGGACACGTGGTGCA,-0.14
25,AGTTTCACGTGGTCTT,0.19
26,GTTCTCACGTGCTTTT,0.34

row,Sequence,relative binding free energy [kcal/mol]
1,GGACTCACGTGGGATG,0.08
2,AACGGCACGTGTGGGG,-0.12
3,GTAGTCACGTGAAGCG,0.29
4,GTGTACACGTGTACAG,0.12
5,TTGGGCACGTGTCCAG,-0.15
6,GGTTACACGTGTGATA,0.12
7,ATTTGCACGTGAAGTG,0.3
8,ATGTACACGTGATATT,0.06
9,GGAGTCACGTGGTTCA,0.1
10,TTCAGCACGTGCGAGT,-0.01
11,AGGTTCACGTGGGTAA,0.12
12,GTTATCACGTGCGTGG,0.08
13,ATGGGCACGTGAGTGA,-0.05
14,TCGTACACGTGTGGGT,0.19
15,TGGGCCACGTGTGTAT,0.02
16,CCTGTCACGTGCGTGG,-0.01
17,GTATTCACGTGGCGTC,0.28
18,GAGGGCACGTGCCGGT,-0.06
19,CTTGCCACGTGTGGGG,-0.06
20,GTTTTCACGTGTATAT,0.24
21,TTCGGCACGTGTACTG,0
22,CAGGGCACGTGGCGTG,-0.07
23,GTGTGCACGTGTTGCC,0
24,TCTTTCACGTGCGTTA,0.18
25,TAGTCCACGTGTGTGT,0.01
26,GAAATCACGTGTTGAT,0.18

row,Sequence,relative binding free energy [kcal/mol]
1,CTGGGCACGTGTGTGG,-0.08
2,GCAGGCACGTGTAAGG,0.01
3,CGGGTCACGTGTCATG,0.01
4,GGTGACACGTGGTCTT,-0.11
5,GTTAGCACGTGGGCGC,-0.22
6,TATTTCACGTGTGGGG,0.28
7,GTTTGCACGTGGCTGG,0.02
8,GTTGACACGTGGAATT,0.07
9,GGTGGCACGTGTCAGA,0.04
10,ACGAACACGTGGGGGG,-0.02
11,TAGTGCACGTGGAACT,0.07
12,CCTTGCACGTGGTTGG,-0.1
13,TACGACACGTGTAGGG,-0.03
14,TCGGTCACGTGGGGCG,-0.07
15,CGTATCACGTGGTTTG,0.06
16,TCGGGCACGTGAAGGG,0.21
17,ATTGTCACGTGACGTT,0.18
18,AAAATCACGTGTGGTG,-0.02
19,TGGCTCACGTGAAGAT,0.41
20,CAGGTCACGTGTGGCG,0.05
21,TACTCCACGTGGGTGG,-0.14
22,GTAGCCACGTGGCGGT,-0.21

# Reference: the BET-seq Pho4 binding data (Le et al. 2018)
